# Measured values: patent US11207320B2, “Compositions and methods for cancer expressing PDE3A or SLFN12” (The Broad Institute, Inc., priority 2015, dated 2021)
# This continues a long series; more values of the same kind are listed elsewhere.
# Test system: 766 cancer cell lines
# Assay: Large-scale cell-line viability measurements (766 cancer cell lines, 72 h, AUC)
# Format: cell-based, human
# Experimental: Cell lines were treated for 72 hours with concentrations ranging from 66.4 μM-2 nM in 2-fold step dilutions.
# To characterize cellular sensitivity to DNMDP further, 766 genomically characterized cancer cell lines were screened for DMNDP sensitivity at concentrations ranging from 66.4 μM to 2 nM in 2-fold dilution steps for 72 hours. From these cell lines, 22 cell lines were categorized as sensitive with a robust Z-score lower than −4, which represented multiple lineages including multiple melanoma cell lines, amongst others (Table 1).
# The sensitivity of […] cancer cell lines (CCLs) was measured drawn from 23 different lineages to DNMDP. Each cell line was plated in its preferred media in white opaque 1536-plates at a density of 500 cells/well. After incubating overnight, DNMDP was added by acoustic transfer at 16 concentrations ranging from 66.4 μM-2 nM in 2-fold steps in duplicate (Labcyte Echo 555, Labcyte Inc., Sunnyvale, Calif.). After 72 hours treatment, cellular ATP levels were measured as a surrogate for viability (CELLTITERGLO®, Promega Corporation, Madison, Wis.) according to manufacturer's protocols using a ViewLux Microplate Imager (PerkinElmer, Waltham, Mass.) and normalized to background (media-only) and vehicle (DMSO)-treated control wells.
# Concentration response curves were fit using nonlinear fits to 2- or 3-parameter sigmoid functions through all 16 concentrations with the low-concentration asymptote set to the DMSO-normalized value, and an optimal 8-point dose curve spanning the range of compound-sensitivity was identified. The area under the 8-point dose curve (AUC) was computed by numeric integration as a metric for sensitivity for further analysis. Similar sensitivity measurements have been obtained for a collection of 480 other compounds, enabling analyses that identify cell lines responding uniquely to DNMDP (see Broad Institute Cancer Therapeutics Response Portal, a dataset to identify comprehensively relationships between genetic and lineage features of human cancer cell lines and small-molecule sensitivities for complete list of compounds).
# [1] = cell line LN229 (CENTRAL NERVOUS SYSTEM)
# [2] = cell line LS123 (LARGE INTESTINE)
# [3] = cell line LS180 (LARGE INTESTINE)
# [4] = cell line LS411N, LARGE INTESTINE, 72 hours
# [5] = cell line LS513, LARGE INTESTINE, 72 hours
# [6] = cell line LS1034 (LARGE INTESTINE)
# [7] = cell line MC116, HAEMATOPOIETIC AND LYMPHOID TISSUE, 72 hours
# [8] = cell line MDAMB361, BREAST, 72 hours
# [9] = cell line MDST8 (LARGE INTESTINE)
# [10] = cell line ME1 (HAEMATOPOIETIC AND LYMPHOID TISSUE)
# [11] = cell line MEC1, HAEMATOPOIETIC AND LYMPHOID TISSUE, 72 hours
# [12] = cell line MELJUSO, SKIN, 72 hours
# [13] = cell line MHHCALL3 (HAEMATOPOIETIC AND LYMPHOID TISSUE)
# [14] = cell line MHHCALL4, HAEMATOPOIETIC AND LYMPHOID TISSUE, 72 hours
# [15] = cell line MHHNB11, AUTONOMIC GANGLIA, 72 hours
# [16] = cell line MOLM13, HAEMATOPOIETIC AND LYMPHOID TISSUE, 72 hours
# [17] = cell line MOLP2 (HAEMATOPOIETIC AND LYMPHOID TISSUE)
# [18] = cell line MOLP8 (HAEMATOPOIETIC AND LYMPHOID TISSUE)
# [19] = cell line NAMALWA (HAEMATOPOIETIC AND LYMPHOID TISSUE)
# [20] = cell line NB1 (AUTONOMIC GANGLIA)
# [21] = cell line NCIH28, PLEURA, 72 hours
# [22] = cell line NCIH358, LUNG, 72 hours
# [23] = cell line NCIH441, LUNG, 72 hours
structure (smiles),measurement,setting,value
"CCN(CC)c1ccc(C2=NNC(=O)CC2C)cc1[N+](=O)[O-] (centres unmarked) [DNMDP, 6-(4-(diethylamino)-3-nitrophenyl)-5-methyl-4,5-dihydropyridazin-3(2H)-one]",DNMDP AUC,[1],6.9883
same,Robust Z-score,[1],0.3712
same,DNMDP AUC,cell line LOXIMVI (SKIN),7.058
same,Robust Z-score,cell line LOXIMVI (SKIN),0.4444
same,DNMDP AUC,[2],6.8175
same,Robust Z-score,[2],0.1919
same,DNMDP AUC,[3],7.0225
same,Robust Z-score,[3],0.4071
same,DNMDP AUC,[4],7.2279
same,Robust Z-score,[4],0.6227
same,DNMDP AUC,[5],7.3199
same,Robust Z-score,[5],0.7193
same,DNMDP AUC,[6],6.6323
same,Robust Z-score,[6],−0.002467
same,DNMDP AUC,[7],7.5146
same,Robust Z-score,[7],0.9236
same,DNMDP AUC,cell line MCAS (OVARY),6.8199
same,Robust Z-score,cell line MCAS (OVARY),0.1944
same,DNMDP AUC,cell line MDAMB231 (BREAST),6.7222
same,Robust Z-score,cell line MDAMB231 (BREAST),0.0919
same,DNMDP AUC,[8],9.2909
same,Robust Z-score,[8],2.788
same,DNMDP AUC,cell line MDAMB435S (SKIN),6.9227
same,Robust Z-score,cell line MDAMB435S (SKIN),0.3024
same,DNMDP AUC,cell line MDAMB468 (BREAST),6.9388
same,Robust Z-score,cell line MDAMB468 (BREAST),0.3193
same,DNMDP AUC,[9],6.8209
same,Robust Z-score,[9],0.1955
same,DNMDP AUC,[10],6.7039
same,Robust Z-score,[10],0.07269
same,DNMDP AUC,[11],7.376
same,Robust Z-score,[11],0.7782
same,DNMDP AUC,cell line MELHO (SKIN),6.9769
same,Robust Z-score,cell line MELHO (SKIN),0.3592
same,DNMDP AUC,[12],7.1877
same,Robust Z-score,[12],0.5805
same,DNMDP AUC,cell line MESSA (SOFT TISSUE),7.0401
same,Robust Z-score,cell line MESSA (SOFT TISSUE),0.4256
same,DNMDP AUC,cell line MFE319 (ENDOMETRIUM),6.7242
same,Robust Z-score,cell line MFE319 (ENDOMETRIUM),0.094
same,DNMDP AUC,[13],6.5324
same,Robust Z-score,[13],−0.1073
same,DNMDP AUC,[14],8.031
same,Robust Z-score,[14],1.466
same,DNMDP AUC,cell line MHHES1 (BONE),6.5353
same,Robust Z-score,cell line MHHES1 (BONE),−0.1043
same,DNMDP AUC,[15],8.8255
same,Robust Z-score,[15],2.3
same,DNMDP AUC,cell line MIAPACA2 (PANCREAS),6.8607
same,Robust Z-score,cell line MIAPACA2 (PANCREAS),0.2373
same,DNMDP AUC,cell line MKN1 (STOMACH),7.0915
same,Robust Z-score,cell line MKN1 (STOMACH),0.4795
same,DNMDP AUC,cell line MKN45 (STOMACH),6.6662
same,Robust Z-score,cell line MKN45 (STOMACH),0.03312
same,DNMDP AUC,cell line MKN74 (STOMACH),6.5911
same,Robust Z-score,cell line MKN74 (STOMACH),−0.04571
same,DNMDP AUC,[16],7.646
same,Robust Z-score,[16],1.062
same,DNMDP AUC,[17],6.928
same,Robust Z-score,[17],0.3079
same,DNMDP AUC,[18],6.6347
same,Robust Z-score,[18],5.248E−05
same,DNMDP AUC,cell line MORCPR (LUNG),6.9126
same,Robust Z-score,cell line MORCPR (LUNG),0.2917
same,DNMDP AUC,cell line MSTO211H (PLEURA),6.5871
same,Robust Z-score,cell line MSTO211H (PLEURA),−0.04991
same,DNMDP AUC,[19],6.5738
same,Robust Z-score,[19],−0.06387
same,DNMDP AUC,[20],6.9466
same,Robust Z-score,[20],0.3274
same,DNMDP AUC,[21],7.3081
same,Robust Z-score,[21],0.7069
same,DNMDP AUC,cell line NCIH226 (LUNG),6.6624
same,Robust Z-score,cell line NCIH226 (LUNG),0.02913
same,DNMDP AUC,cell line NCIH292 (LUNG),6.8954
same,Robust Z-score,cell line NCIH292 (LUNG),0.2737
same,DNMDP AUC,cell line NCIH322 (LUNG),6.9254
same,Robust Z-score,cell line NCIH322 (LUNG),0.3052
same,DNMDP AUC,[22],7.1753
same,Robust Z-score,[22],0.5675
same,DNMDP AUC,[23],7.1284
same,Robust Z-score,[23],0.5183
same,DNMDP AUC,cell line NCIH460 (LUNG),6.8048
